Details in all cases: priming compound concentration 100 µM
The subject of experiment [1] is hAMSC donor 1. In words: Hoechst total cell count ratio vs vehicle control; higher = more cells (less toxicity).
In experiment [2] the test system is hAMSC donor 2. Described as above.
The test system of experiment [3] is hAMSC donor 1. In words: transgenic luciferase activity (RLU/mg protein) fold change vs vehicle control (ratio); higher = more transgene expression.
Experiment [4] deals with hAMSC donor 2. Described as above.
For experiment [5], the system named is hAMSC donor 1. In words: transfection efficiency (EGFP+ cells / Hoechst count) fold change vs vehicle control (ratio); hAMSC are human adipose-derived mesenchymal stem cells given an EGFP-luciferase plasmid by lipofection; higher = enhanced transfection.
Experiment [6] deals with hAMSC donor 2. Described as above.

Where a name gives a salt, the structure may show the parent alone. ± gives the standard deviation of the averaged measurements. The list shows a part of the results.
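Throughout, for Hoechst total cell count ratio vs vehicle control: compound added 30 min before Lipofectamine 3000 lipoplex delivery, triplicate-well means expressed against DMSO vehicle control wells of the same 96-well plate.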
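Throughout, for transfection efficiency (EGFP+ cells / Hoechst count) fold change vs vehicle control: compounds added 30 min before Lipofectamine 3000 lipoplex transfection, triplicate means relative to DMSO vehicle wells on the same plate, luciferase RLU normalized to BCA total protein.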
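Throughout, for transgenic luciferase activity (RLU/mg protein) fold change vs vehicle control: compounds in DMSO added 30 min before Lipofectamine 3000 transfection of pEGFP-Luc in 96-well plates, values are means of triplicate wells over DMSO vehicle wells on the same plate.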

Take `CCn1cc(C(=O)O)c(=O)c2cc(F)c(N3CCNCC3)cc21` [Norfloxacin]: the entries for the “Hoechst total cell count ratio” value in the experiment with hAMSC donor 1 [1] and in the experiment on hAMSC donor 2 [2] were 1.46 ± 0.24 and 1.93 ± 0.41, respectively. In addition, the transgenic luciferase activity was 1.52 ± 0.64 with hAMSC donor 1 [3] and 1.31 ± 0.48 with hAMSC donor 2 [4]. Moreover, the transfection efficiency was found to be 0.981 ± 0.15 with hAMSC donor 1 [5] and 1.41 ± 0.23 in the experiment with hAMSC donor 2 [6].
Take `COc1ccccc1OCC(O)COC(N)=O` (centres undefined) [Methocarbamol]: the figures for the “Hoechst total cell count ratio” value in the experiment with hAMSC donor 1 [1] and in the experiment with hAMSC donor 2 [2] were 1.12 ± 0.092 and 1.39 ± 0.074, respectively. The figures for the transgenic luciferase activity in the experiment with hAMSC donor 1 [3] and in the experiment on hAMSC donor 2 [4] were 1.82 ± 0.28 and 0.833 ± 0.081, respectively. In addition, the transfection efficiency with hAMSC donor 1 [5] amounted to 1.2 ± 0.25; with hAMSC donor 2 [6], 0.85 ± 0.067.
In the case of `CC1(C)O[C@@H]2C[C@H]3[C@@H]4CCC5=CC(=O)C=C[C@]5(C)[C@@]4(F)[C@@H](O)C[C@]3(C)[C@]2(C(=O)CO)O1` [Triamcinolone acetonide], the entries for the “Hoechst total cell count ratio” value in the experiment with hAMSC donor 1 [1] and in the experiment on hAMSC donor 2 [2] were 1.42 ± 0.17 and 1.28 ± 0.17, respectively. Besides, the transgenic luciferase activity came to 20.7 ± 2.3 in the experiment on hAMSC donor 1 [3] and 4.28 ± 0.18 with hAMSC donor 2 [4]. The results for the transfection efficiency in the experiment with hAMSC donor 1 [5] and with hAMSC donor 2 [6] were 1.83 ± 0.45 and 2.23 ± 0.51, respectively.
In the case of `CC(=O)S[C@@H]1CC2=CC(=O)CC[C@]2(C)[C@H]2CC[C@@]3(C)[C@@H](CC[C@@]34CCC(=O)O4)[C@H]12` [Spironolactone], the “Hoechst total cell count ratio” value was determined as 1.39 ± 0.06 with hAMSC donor 1 [1] and 0.559 ± 0.044 in the experiment with hAMSC donor 2 [2]. Also, the transgenic luciferase activity with hAMSC donor 1 [3] is 0.43 ± 0.23; in the experiment on hAMSC donor 2 [4], 0.238 ± 0.036. Also, the transfection efficiency in the experiment with hAMSC donor 1 [5] came to 0.849 ± 0.3; in the experiment with hAMSC donor 2 [6], 0.546 ± 0.064.
`COc1cc2nc(N3CCN(C(=O)c4ccco4)CC3)nc(N)c2cc1OC` [Prazosin hydrochloride hydrate]: the “Hoechst total cell count ratio” value with hAMSC donor 1 [1] stood at 0.538 ± 0.054; in the experiment on hAMSC donor 2 [2], 0.289 ± 0.026. The transgenic luciferase activity was found to be 0.293 ± 0.12 in the experiment on hAMSC donor 1 [3] and 0.631 ± 0.38 in the experiment on hAMSC donor 2 [4]. The transfection efficiency was determined as 0.873 ± 0.17 in the experiment with hAMSC donor 1 [5] and 1.08 ± 0.26 with hAMSC donor 2 [6].
Regarding `C/C(=C\C(=O)OCCCCCCCCC(=O)O)C[C@@H]1OC[C@H](C[C@@H]2O[C@H]2[C@@H](C)[C@H](C)O)[C@@H](O)[C@H]1O` [Mupirocin], the “Hoechst total cell count ratio” value with hAMSC donor 1 [1] worked out at 1.09 ± 0.065; in the experiment on hAMSC donor 2 [2], 1.07 ± 0.31. The transgenic luciferase activity in the experiment on hAMSC donor 1 [3] amounted to 2.11 ± 0.84; in the experiment with hAMSC donor 2 [4], 1.41 ± 0.73. Further, the transfection efficiency turned out to be 1.33 ± 0.48 in the experiment on hAMSC donor 1 [5] and 1.14 ± 0.045 in the experiment with hAMSC donor 2 [6].
In the case of `CCC[C@@H]1C[C@@H](C(=O)N[C@@H]([C@H]2O[C@H](SC)[C@H](O)[C@@H](O)[C@H]2O)[C@@H](C)O)N(C)C1` [Lincomycin hydrochloride], the “Hoechst total cell count ratio” value in the experiment on hAMSC donor 1 [1] was 1.07 ± 0.15; in the experiment on hAMSC donor 2 [2], 0.915 ± 0.062. In addition, the transgenic luciferase activity with hAMSC donor 1 [3] came out at 1.38 ± 0.58; with hAMSC donor 2 [4], 0.383 ± 0.17. The transfection efficiency with hAMSC donor 1 [5] turned out to be 0.887 ± 0.072; with hAMSC donor 2 [6], 1.47 ± 0.2.
In the case of `CN1CCCC(n2nc(Cc3ccc(Cl)cc3)c3ccccc3c2=O)CC1` (centres undefined) [Azelastine hydrochloride], the “Hoechst total cell count ratio” value amounted to 0.671 ± 0.052 with hAMSC donor 1 [1] and 0.287 ± 0.096 in the experiment on hAMSC donor 2 [2]. Moreover, the values for the transgenic luciferase activity with hAMSC donor 1 [3] and with hAMSC donor 2 [4] were 2.36 ± 1.3 and 0.434 ± 0.071, respectively. For the same compound, the transfection efficiency was determined as 0.631 ± 0.21 with hAMSC donor 1 [5] and 0.602 ± 0.12 in the experiment with hAMSC donor 2 [6].
For the compound `COC(=O)C1=C(C)NC(C)=C(C(=O)OCC(C)C)C1c1ccccc1[N+](=O)[O-]` (centres undefined) [Nisoldipine], the entries for the “Hoechst total cell count ratio” value in the experiment with hAMSC donor 1 [1] and in the experiment with hAMSC donor 2 [2] were 1.38 ± 0.25 and 0.705 ± 0.088, respectively. In addition, the values for the transgenic luciferase activity with hAMSC donor 1 [3] and in the experiment on hAMSC donor 2 [4] were 0.823 ± 0.36 and 0.858 ± 0.31, respectively. Moreover, the transfection efficiency in the experiment on hAMSC donor 1 [5] was determined as 0.74 ± 0.17; with hAMSC donor 2 [6] it was 0.757 ± 0.22.
As to `CCOC(=O)[C@H](CCc1ccccc1)N[C@H]1CCc2ccccc2N(CC(=O)O)C1=O` [Benazepril hydrochloride], the “Hoechst total cell count ratio” value in the experiment with hAMSC donor 1 [1] was 1.4 ± 0.12; with hAMSC donor 2 [2], 1.05 ± 0.17. The results for the transgenic luciferase activity in the experiment with hAMSC donor 1 [3] and with hAMSC donor 2 [4] were 0.529 ± 0.29 and 0.661 ± 0.037, respectively. The transfection efficiency with hAMSC donor 1 [5] turned out to be 0.971 ± 0.16; with hAMSC donor 2 [6], 0.917 ± 0.097.
For the compound `CC(C)C[C@H](NC(=O)[C@@H](O)[C@H](N)Cc1ccccc1)C(=O)O` [Bestatin], the “Hoechst total cell count ratio” value in the experiment with hAMSC donor 1 [1] was found to be 0.992 ± 0.027; in the experiment on hAMSC donor 2 [2] it was 0.926 ± 0.15. In addition, the transgenic luciferase activity was determined as 1.2 ± 0.82 in the experiment with hAMSC donor 1 [3] and 1.22 ± 0.75 in the experiment on hAMSC donor 2 [4]. Further, the transfection efficiency is 1.06 ± 0.37 in the experiment with hAMSC donor 1 [5] and 1.35 ± 0.074 in the experiment on hAMSC donor 2 [6].
`O=C1[C@H]2CCCC[C@H]2C(=O)N1CCCCN1CCN(c2nsc3ccccc23)CC1` [Perospirone hydrochloride]: the “Hoechst total cell count ratio” value is 0.843 ± 0.083 in the experiment with hAMSC donor 1 [1] and 0.515 ± 0.04 in the experiment with hAMSC donor 2 [2]. Moreover, the transgenic luciferase activity in the experiment on hAMSC donor 1 [3] stood at 4.5 ± 2.6; in the experiment with hAMSC donor 2 [4], 2.38 ± 0.25. Also, the transfection efficiency in the experiment with hAMSC donor 1 [5] stood at 1.94 ± 0.1; with hAMSC donor 2 [6] it was 2.8 ± 0.32.
Regarding `NCc1ccc(S(N)(=O)=O)cc1` [Mafenide acetate], the “Hoechst total cell count ratio” value in the experiment with hAMSC donor 1 [1] was determined as 1.11 ± 0.099; in the experiment on hAMSC donor 2 [2], 1.71 ± 0.045. The transgenic luciferase activity turned out to be 1.19 ± 0.18 in the experiment with hAMSC donor 1 [3] and 0.696 ± 0.1 in the experiment with hAMSC donor 2 [4]. Moreover, the transfection efficiency in the experiment on hAMSC donor 1 [5] came to 1.14 ± 0.35; in the experiment with hAMSC donor 2 [6], 1.03 ± 0.075.
With `CO[C@H]1/C=C/O[C@@]2(C)Oc3c(C)c(O)c4c(c3C2=O)C2=NC3(CCN(CC(C)C)CC3)NC2=C(NC(=O)/C(C)=C\C=C\[C@H](C)[C@H](O)[C@@H](C)[C@@H](O)[C@@H](C)[C@H](OC(C)=O)[C@@H]1C)C4=O` [Rifabutin], the “Hoechst total cell count ratio” value in the experiment on hAMSC donor 1 [1] amounted to 1.17 ± 0.048; in the experiment with hAMSC donor 2 [2] it was 1.39 ± 0.35. In addition, the transgenic luciferase activity was 0.166 ± 0.064 in the experiment on hAMSC donor 1 [3] and 0.743 ± 0.24 in the experiment on hAMSC donor 2 [4]. Also, the transfection efficiency is 0.386 ± 0.09 with hAMSC donor 1 [5] and 0.31 ± 0.092 with hAMSC donor 2 [6].
On to `COc1cc(C(=O)NC2CCCNC2)cc(OC)c1OC` (centres undefined) [Troxipide], for which the “Hoechst total cell count ratio” value in the experiment with hAMSC donor 1 [1] amounted to 1.54 ± 0.37; in the experiment on hAMSC donor 2 [2], 1.41 ± 0.21. For the same compound, the transgenic luciferase activity turned out to be 0.167 ± 0.079 in the experiment on hAMSC donor 1 [3] and 0.149 ± 0.016 in the experiment on hAMSC donor 2 [4]. For the same compound, the values for the transfection efficiency with hAMSC donor 1 [5] and in the experiment on hAMSC donor 2 [6] were 0.983 ± 0.11 and 1.04 ± 0.064, respectively.
For `O=C1NC(=O)C(c2ccccc2)(c2ccccc2)N1` [Dilantin], the figures for the “Hoechst total cell count ratio” value with hAMSC donor 1 [1] and in the experiment with hAMSC donor 2 [2] were 0.894 ± 0.2 and 1.07 ± 0.23, respectively. The transgenic luciferase activity is 0.706 ± 0.18 in the experiment with hAMSC donor 1 [3] and 0.871 ± 0.14 in the experiment on hAMSC donor 2 [4]. Besides, the transfection efficiency is 1.32 ± 0.49 with hAMSC donor 1 [5] and 1 ± 0.049 in the experiment with hAMSC donor 2 [6].
As to `CC(=O)OCC(=O)[C@@]12OC3(CCCC3)O[C@@H]1C[C@H]1[C@@H]3CCC4=CC(=O)C=C[C@]4(C)[C@@]3(F)[C@@H](O)C[C@@]12C` [Amcinonide], the “Hoechst total cell count ratio” value with hAMSC donor 1 [1] was 1.02 ± 0.017; in the experiment with hAMSC donor 2 [2], 1.19 ± 0.12. Also, the figures for the transgenic luciferase activity in the experiment with hAMSC donor 1 [3] and with hAMSC donor 2 [4] were 16.9 ± 3.2 and 4.17 ± 0.95, respectively. The transfection efficiency with hAMSC donor 1 [5] came to 1.7 ± 0.48; with hAMSC donor 2 [6], 2.05 ± 0.061.
In the case of `CSc1ccc2c(c1)N(CCC1CCCCN1C)c1ccccc1S2` (centres undefined) [Thioridazine hydrochloride], the entries for the “Hoechst total cell count ratio” value with hAMSC donor 1 [1] and in the experiment with hAMSC donor 2 [2] were 0.0697 ± 0.052 and 0.238 ± 0.085, respectively. Also, the transgenic luciferase activity was 0.0118 ± 0.0035 in the experiment with hAMSC donor 1 [3] and 0.000333 ± 0.00021 in the experiment with hAMSC donor 2 [4]. In addition, the transfection efficiency with hAMSC donor 1 [5] was determined as 2.47 ± 1.4; in the experiment with hAMSC donor 2 [6], 0.0842 ± 0.076.
In the case of `CC(C[N+](C)(C)C)OC(N)=O` (centres undefined) [Bethanechol chloride], the “Hoechst total cell count ratio” value with hAMSC donor 1 [1] was found to be 1.24 ± 0.093; in the experiment with hAMSC donor 2 [2], 1.55 ± 0.19. Further, the figures for the transgenic luciferase activity with hAMSC donor 1 [3] and with hAMSC donor 2 [4] were 0.709 ± 0.39 and 0.615 ± 0.049, respectively. In addition, the values for the transfection efficiency with hAMSC donor 1 [5] and with hAMSC donor 2 [6] were 0.888 ± 0.3 and 0.89 ± 0.059, respectively.

These data come from the supplement of paper PMC7238544.
